Measurements published in patent US20240141039A1 (AGENUS, published 2024).

T1: full-length isoform 2 ECD of human CD96 with a C89S mutation (His-tagged) (human, UniProt P40200 22-519)
T1 construct: also called His-tagged isoform 2 of human CD96 with a C89S mutation; human CD96 extracellular domain isoform 2 C89S
T1 sequence: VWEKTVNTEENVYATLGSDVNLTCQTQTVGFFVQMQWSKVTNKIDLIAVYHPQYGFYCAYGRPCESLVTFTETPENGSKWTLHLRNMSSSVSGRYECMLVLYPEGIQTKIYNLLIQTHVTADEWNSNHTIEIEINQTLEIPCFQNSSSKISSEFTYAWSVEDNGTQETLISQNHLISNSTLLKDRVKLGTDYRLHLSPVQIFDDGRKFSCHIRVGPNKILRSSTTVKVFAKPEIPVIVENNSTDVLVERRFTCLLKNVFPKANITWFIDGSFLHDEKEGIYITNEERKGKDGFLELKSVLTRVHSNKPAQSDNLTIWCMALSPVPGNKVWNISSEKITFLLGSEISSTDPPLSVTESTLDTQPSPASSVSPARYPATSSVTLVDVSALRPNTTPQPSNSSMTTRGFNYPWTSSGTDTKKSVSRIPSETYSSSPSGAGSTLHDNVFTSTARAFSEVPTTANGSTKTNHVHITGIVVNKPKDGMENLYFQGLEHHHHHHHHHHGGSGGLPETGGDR

T2: wild type full-length cynomolgus monkey CD96 isoform 2 expressed on CHO cells (cynomolgus monkey, UniProt A0A2K5TWV6 22-569)
T2 construct: whole, on cells; also called cynomolgus CD96-CHO cells; cynomolgus CD96-CHO (isoform 2)
T2 sequence: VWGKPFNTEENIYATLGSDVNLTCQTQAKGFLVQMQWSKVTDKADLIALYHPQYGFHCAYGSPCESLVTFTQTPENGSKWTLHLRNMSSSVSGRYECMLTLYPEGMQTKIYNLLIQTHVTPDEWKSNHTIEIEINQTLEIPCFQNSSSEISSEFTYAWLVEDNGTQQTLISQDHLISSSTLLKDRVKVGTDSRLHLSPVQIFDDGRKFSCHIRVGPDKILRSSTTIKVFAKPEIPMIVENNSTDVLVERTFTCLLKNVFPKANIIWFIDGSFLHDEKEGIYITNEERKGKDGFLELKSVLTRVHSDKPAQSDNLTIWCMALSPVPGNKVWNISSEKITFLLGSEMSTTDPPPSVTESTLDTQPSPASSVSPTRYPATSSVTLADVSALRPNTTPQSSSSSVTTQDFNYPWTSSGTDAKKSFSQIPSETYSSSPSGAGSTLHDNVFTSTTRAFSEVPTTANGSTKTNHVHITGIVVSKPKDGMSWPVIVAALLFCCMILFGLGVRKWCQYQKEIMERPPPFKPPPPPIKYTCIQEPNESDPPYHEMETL

T3: wild type full-length human CD96 isoform 2 expressed on CHO cells (human, UniProt P40200-2 22-569)
T3 construct: whole, on cells; also called human CD96-CHO (isoform 2); human CD96 (iso2) CHO cells
T3 sequence (looked up): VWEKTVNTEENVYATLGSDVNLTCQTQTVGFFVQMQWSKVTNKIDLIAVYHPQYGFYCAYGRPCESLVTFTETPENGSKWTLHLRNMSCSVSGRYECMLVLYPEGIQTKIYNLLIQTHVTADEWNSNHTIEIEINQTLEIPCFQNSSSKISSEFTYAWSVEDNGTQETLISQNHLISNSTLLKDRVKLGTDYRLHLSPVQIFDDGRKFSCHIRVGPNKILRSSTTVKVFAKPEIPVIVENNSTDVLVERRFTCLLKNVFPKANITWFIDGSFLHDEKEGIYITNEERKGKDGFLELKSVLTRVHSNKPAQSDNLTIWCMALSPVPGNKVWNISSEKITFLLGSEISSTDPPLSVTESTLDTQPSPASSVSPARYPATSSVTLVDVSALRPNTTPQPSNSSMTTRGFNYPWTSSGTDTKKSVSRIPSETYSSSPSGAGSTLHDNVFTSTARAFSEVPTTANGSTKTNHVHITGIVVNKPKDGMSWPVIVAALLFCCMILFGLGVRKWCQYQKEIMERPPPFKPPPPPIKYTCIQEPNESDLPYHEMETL

T4: full-length isoform 2 ECD of cynomolgus monkey CD96 (His-tagged) (cynomolgus monkey)
T4 construct: also called His-tagged isoform 2 of cynomolgus monkey CD96; cyno CD96 extracellular domain isoform 2
T4 chain: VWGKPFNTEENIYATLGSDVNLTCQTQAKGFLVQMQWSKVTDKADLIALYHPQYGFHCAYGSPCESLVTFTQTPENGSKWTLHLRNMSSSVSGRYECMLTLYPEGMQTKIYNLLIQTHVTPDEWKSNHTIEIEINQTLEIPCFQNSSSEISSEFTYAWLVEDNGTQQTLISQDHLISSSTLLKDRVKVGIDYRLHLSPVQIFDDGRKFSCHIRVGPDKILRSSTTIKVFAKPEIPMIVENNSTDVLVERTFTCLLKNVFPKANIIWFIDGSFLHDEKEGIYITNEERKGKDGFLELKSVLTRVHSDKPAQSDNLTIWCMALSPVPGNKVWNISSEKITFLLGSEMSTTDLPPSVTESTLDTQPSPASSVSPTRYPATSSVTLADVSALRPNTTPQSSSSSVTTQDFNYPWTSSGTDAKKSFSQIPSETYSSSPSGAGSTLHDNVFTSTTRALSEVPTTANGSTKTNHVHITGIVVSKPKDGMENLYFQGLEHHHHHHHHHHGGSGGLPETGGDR


Columns and labels:
[1] = biological target: T1, full-length isoform 2 ECD of human CD96 …; test: SPR Biacore T200, Protein A capture, 1:1 model, experiment #2
Procedure: (§1) Briefly, surface plasmon resonance experiments were performed using a Biacore T200 instrument, and the association rate (kₐ), dissociation rate (kd), and dissociation constant (KD) were calculated from each experiment using a 1:1 binding model with Biacore T200 Evaluation Software.
(§2) The sensor chip was regenerated between cycles with two 30-sec injections of 10 mM glycine, pH 1.5. Sensorgrams were evaluated and fit to a simple Langmuir 1:1 interaction model using the global data analysis option of BIAevaluation 3.0 software. Data quality was verified by visually inspecting deviations and curve fitting, and by evaluating the parameters of Rₘₐₓ, Chi2, and Tc.

[2] = biological target: T2, wild type full-length cynomolgus monkey …; test: flow cytometry, blocking of CD155-Fc-PE binding to cynomolgus CD96 (isoform 2) CHO cells, geomean of 3 experiments
Procedure: IC50 values were calculated using GraphPad Prism software by curve fitting using a four-parameter logistic equation.

[3] = biological target: T3, wild type full-length human CD96 …; test: flow cytometry on CHO cells expressing human CD96 isoform 2, PE anti-human IgG Fc detection
Procedure: (§3) Cells were centrifuged at 300 g for five minutes. The supernatant was discarded, and cells resuspended in FACS buffer were seeded in a 96-well U-bottom tissue culture plate at a density of 2×10⁵ cells per well in 50 μL. In a separate microplate, a 2× concentrated intermediate stock of each antibody was prepared. Antibodies were serially diluted 1-to-4 in FACS buffer. A total of 11 working dilutions ranging from 60 μg/mL to 0.000057 μg/mL were prepared. Fifty microlitres of each dilution were then transferred to the microplate containing human CD96-CHO cells. The cells were then incubated for 45 minutes at 4° C. […] After a 30-minute incubation on ice, the cells were washed twice with cold FACS Buffer, and the cells were analyzed by flow cytometry (BD LSR Fortessa Flow Cytometer). The data were analyzed using the FlowJo software by sequentially gating the FSC-A vs. SSC-A, and SSC-H vs. SSC-A. Mean fluorescence intensity (MFI) values for PE were calculated, and the data were plotted by GraphPad Prism software.

[4] = biological target: T4, full-length isoform 2 ECD of cynomolgus …; test: SPR Biacore T200, geomean of experiments #1 and #2
Procedure: as §1
(§4) The sensor chip was regenerated between cycles with two 30-sec injections of 10 mM glycine, pH 1.5. Sensorgrams were evaluated and fit to a simple Langmuir 1:1 interaction model using the global data analysis option of BIAevaluation 3.0 software.

[5] = biological target: T1, full-length isoform 2 ECD of human CD96 …; test: SPR Biacore T200, Protein A capture, 1:1 model, experiment #1
Procedure: as §1, §2

[6] = biological target: T4, full-length isoform 2 ECD of cynomolgus …; test: SPR Biacore T200, Protein A capture, 1:1 model, experiment #2
Procedure: as §1, §4

[7] = biological target: T2, wild type full-length cynomolgus monkey …; test: flow cytometry, cynomolgus CD96 (isoform 2) CHO cells, geomean of 2 experiments
Procedure: as §3

[8] = biological target: T4, full-length isoform 2 ECD of cynomolgus …; test: SPR Biacore T200, Protein A capture, 1:1 model, experiment #1
Procedure: as §1, §4

[9] = biological target: T3, wild type full-length human CD96 …; test: flow cytometry, human CD96 (isoform 2) CHO cells, geomean of 2 experiments
Procedure: as §3

[10] = biological target: T1, full-length isoform 2 ECD of human CD96 …; test: SPR Biacore T200, geomean of experiments #1 and #2
Procedure: as §1, §2

[11] = biological target: T3, wild type full-length human CD96 …; test: flow cytometry, blocking of human CD155-Fc-PE binding to CHO cells expressing human CD96 isoform 2
Procedure: (§5) A 4× concentrated intermediate stock of each antibody was prepared in a microplate. Antibodies were serially diluted 1-to-4 in FACS buffer. […] After a 30-minute incubation on ice, the cells were washed twice with cold FACS Buffer, and the cells were analyzed by flow cytometry (BD LSR Fortessa Flow Cytometer). The data were analyzed using the FlowJo software by sequentially gating on the FSC-A vs. SSC-A and SSC-H vs. SSC-A. Mean fluorescence intensity (MFI) values for PE were calculated, and the data were plotted by GraphPad Prism software and analyzed as described above.

[12] = biological target: T3, wild type full-length human CD96 …; test: flow cytometry, blocking of CD155-Fc-PE binding to human CD96 (isoform 2) CHO cells, geomean of 3 experiments
Procedure: as §5

[13] = biological target: CD4+ T cells (CD3-stimulated; Day 4); test: flow cytometry on activated primary human T cells, gated CD4+, donor 2; PE anti-human IgG detection
[14] = biological target: CD4+ T cells (CD3-stimulated; Day 4); test: flow cytometry on activated primary human T cells, gated CD4+, donor 1; PE anti-human IgG detection
[15] = biological target: CD8+ T cells (CD3-stimulated; Day 4); test: flow cytometry on activated primary human T cells, gated CD8+, donor 1; PE anti-human IgG detection

Kd [1] | koff [1] | kon [1] | Kd [5] | koff [5] | kon [5] | EC50 [9] | Kd [10] | IC50 (read off the curve) [11] | IC50 [12] | Binder | further results
71.8 nM | 0.000907 s⁻¹ | 12600 M⁻¹ s⁻¹ | 89.1 nM | 0.00105 s⁻¹ | 11800 M⁻¹ s⁻¹ | 0.0267 µg/mL | 80 nM | ~0.5 µg/mL | 0.542 µg/mL | anti-CD96 monospecific antibody BA145 (antibody, human IgG1, kappa) heavy: QVQLVQSGAEVKKPGASVKVSCKASGYTFTSYGISWVRQAPGQGLEWMGWISAYNANTNYAQKLQGRVTMTTDTSTSTAYMELRSLRSDDTAVYYCARSAGVLGGMDVWGRGTLVTVSSASTKGPSVFPLAPSSKSTSGGTAALGCLVKDYFPEPVTVSWNSGALTSGVHTFPAVLQSSGLYSLSSVVTVPSSSLGTQTYICNVNHKPSNTKVDKRV[in this place human IgG1 Fc] light: EIVMTQSPATLSVSPGERATLSCRASQSVNAYLAWYQQKPGQAPRLLIYGASTRATGIPARFSGSGSGTEFTLTISSLQSEDFAVYYCQQYNNWPSFGQGTKLEIKRTVAAPSVFIFPPSDEQLKSGTASVVCLLNNFYPREAKVQWKVDNALQSGNSQESVTEQDSKDSTYSLSSTLTLSKADYEKHKVYACEVTHQGLSSPVTKSFNRGEC | IC50 [2]: 0.795 µg/mL; EC50 (read off the curve) [3]: ~0.04 µg/mL; Kd [4]: 86.2 nM; Kd [6]: 80.5 nM; koff [6]: 0.00584 s⁻¹; kon [6]: 72600 M⁻¹ s⁻¹; EC50 [7]: 1.05 µg/mL; Kd [8]: 92.3 nM; koff [8]: 0.00616 s⁻¹; kon [8]: 66800 M⁻¹ s⁻¹
13.3 nM | 0.000572 s⁻¹ | 43100 M⁻¹ s⁻¹ | 13.3 nM | 0.000583 s⁻¹ | 44000 M⁻¹ s⁻¹ | 0.0059 µg/mL | 13.3 nM | ~0.2 µg/mL | 0.152 µg/mL | anti-CD96 monospecific antibody BA143 (antibody, human IgG1, kappa) heavy: QVQLVQSGAEVKKPGASVKVSCKASGYTFTTYALHWVRQAPGQRLEWMGWINTGSGDTKYSQKFQGRVTITRDTSASTAYMELSSLRSEDTAVYYCARSLGVYYGMDVWGQGTLVTVSSASTKGPSVFPLAPSSKSTSGGTAALGCLVKDYFPEPVTVSWNSGALTSGVHTFPAVLQSSGLYSLSSVVTVPSSSLGTQTYICNVNHKPSNTKVDKRV[in this place human IgG1 Fc] light: [in this place about 100 residues][in this place about 120 residues] | EC50 (read off the curve) [13]: ~0.006 µg/mL; EC50 (read off the curve) [14]: ~0.02 µg/mL; EC50 (read off the curve) [15]: ~0.01 µg/mL
